The results in this text go back to US20050147610A1 (AbbVie / Abbott, published 2005).

Assay [1] deals with T1, (4C/A)-huIL-18 (4C/A mutant of mature human IL-18) (human, UniProt Q14116 37-193).
T1 construct: All four Cys of mature IL-18 are changed to Ala; also called 4C/A mutant of IL-18; Cysteine > Alanine mutant BV derived rec. human IL-18
As to the kind of experiment: BIACORE.

Assay [2] has as its target T2, NEM-huIL-18 (recombinant mature human IL-18 treated with N-ethyl maleiamide) (human, UniProt Q14116 37-193, cysteines protected with N-ethyl maleiamide (NEM)). As to the kind of experiment: cell-based or functional assay.
Assay [3] addresses natural human IL-18 (endogenous, human whole blood) (human, UniProt Q14116 37-193). As to the kind of experiment: cell-based or functional assay.
A further assay concerns the target 125I labeled rhu-IL-18 (human, UniProt Q14116 37-193, NEM-treated cysteines; 125I label on lysine residues). The experiment in a line: RBA: inhibition of 125I-rhu-IL-18 binding to IL-18Rαβ on KG-1 cells.
In assay [4] the target is T2, NEM-huIL-18 (recombinant mature human …). As to the kind of experiment: Biacore, NEM-cys protected rhuIL-18.

B1: 2.5(E)wtg1 (antibody, human IgG1, kappa)
heavy: ZVQLVQSGTEVKKPGESLKISCKGSGYTVTSYWIGWVRQMPGKGLEWMGFIYPGDSETRYSPTFQGQVTISADKSFNTAFLQWSSLKASDTAMYYCARVGSGWYPYTFDIWGQGTMVTVSS[letters of human IgG1 constant region not shown]
light: EIVMTQSPATLSVSPGERATLSCRASESISSNLAWYQQKPGQAPRLFIYTASTRATDIPARFSGSGSGTEFTLTISSLQSEDFAVYYCQQYNNWPSITFGQGTRLEIKRTVAAPSVFIFPPSDEQLKSGTASVVCLLNNFYPREAKVQWKVDNALQSGNSQESVTEQDSKDSTYSLSSTLTLSKADYEKHKVYACEVTHQGLSSPVTKSFNRGEC
notes: Human IgG1 wild type/kappa
As to B1, in assay [1], the Kd came to 0.17 nM and the koff was 4.78e-05 s⁻¹. The “KG-1 (IC50, nM)” value in assay [2] is 0.3 nM. Moreover, in assay [3], the “WBA (IC50, nM)” value came to 3 nM. Moreover, the IC50 with 125I labeled rhu-IL-18 was found to be 2.38 nM. Besides, in assay [4], the Kd amounted to 0.4 nM.
